Paper PMC4336329 (PLoS ONE, 2015)
About 14,000 (4.5%) of roughly 310,000 compounds showed an effect of 50% or more. The effect is printed as a negative number. This is one part of the list.

molecular target: human ether-à-go-go-related gene (hERG) potassium channel (human, UniProt Q12809); test: primary screen, population patch clamp on CHO cells stably expressing hERG
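Also: peak tail current of the secondary pulse compared with the same well before compound.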

Sequence of human ether-à-go-go-related gene (hERG) potassium channel (Q12809 whole entry, looked up): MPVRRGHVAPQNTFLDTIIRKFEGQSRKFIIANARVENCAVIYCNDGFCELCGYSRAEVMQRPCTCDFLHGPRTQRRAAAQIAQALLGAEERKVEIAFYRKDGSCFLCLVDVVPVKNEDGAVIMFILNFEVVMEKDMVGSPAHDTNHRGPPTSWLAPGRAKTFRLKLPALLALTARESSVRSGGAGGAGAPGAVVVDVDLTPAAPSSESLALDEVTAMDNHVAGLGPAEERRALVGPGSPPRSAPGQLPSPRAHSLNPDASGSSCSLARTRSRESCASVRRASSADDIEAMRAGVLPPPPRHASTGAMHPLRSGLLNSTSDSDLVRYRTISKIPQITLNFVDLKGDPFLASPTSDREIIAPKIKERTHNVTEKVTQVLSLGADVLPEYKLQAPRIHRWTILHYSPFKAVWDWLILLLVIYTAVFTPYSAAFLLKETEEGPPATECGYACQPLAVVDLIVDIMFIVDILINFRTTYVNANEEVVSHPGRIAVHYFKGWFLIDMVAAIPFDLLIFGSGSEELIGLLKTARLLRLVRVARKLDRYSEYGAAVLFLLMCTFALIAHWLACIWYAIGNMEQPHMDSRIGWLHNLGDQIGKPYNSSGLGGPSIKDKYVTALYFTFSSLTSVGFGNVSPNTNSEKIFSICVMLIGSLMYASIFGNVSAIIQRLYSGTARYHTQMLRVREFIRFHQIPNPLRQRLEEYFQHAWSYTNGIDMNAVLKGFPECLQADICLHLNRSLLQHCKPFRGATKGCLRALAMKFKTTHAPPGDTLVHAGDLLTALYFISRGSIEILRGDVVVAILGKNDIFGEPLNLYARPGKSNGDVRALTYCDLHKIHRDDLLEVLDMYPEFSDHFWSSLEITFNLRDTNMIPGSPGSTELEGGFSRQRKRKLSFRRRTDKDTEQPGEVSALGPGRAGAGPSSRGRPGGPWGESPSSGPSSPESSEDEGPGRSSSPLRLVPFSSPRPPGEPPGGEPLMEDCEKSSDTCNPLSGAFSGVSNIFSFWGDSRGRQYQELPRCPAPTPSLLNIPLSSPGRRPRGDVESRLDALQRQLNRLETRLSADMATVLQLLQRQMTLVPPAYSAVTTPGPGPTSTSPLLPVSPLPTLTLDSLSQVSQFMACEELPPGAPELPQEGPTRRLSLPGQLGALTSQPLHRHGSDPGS

Structure (SMILES)	hERG current change (%, negative = inhibition) at 10uM
CCOC(=O)CCCc1ccc(/C(C)=N/NC(=S)NC)cc1	13.9%
CCOC(=O)c1ccc2c(c1)nc(SCC(=O)N1CCCCC1)n2CC	-30.4%
Nc1nc(N)nc(-c2ccc(Cl)cc2)n1	5.96%
CN(C)C(CNC(=O)CSc1nc2ccccc2c(=O)n1Cc1ccco1)c1ccccc1 (stereo not drawn)	-67.1%
O=C(CCc1ccc(O)c(O)c1)N/N=C/c1ccc2c(c1)OCO2	9.98%
COC(=O)C1=C(c2ccc(Cl)c(C(F)(F)F)c2)C[C@@H]2CC[C@H]1N2C(=O)N1CCCC1	-17.8%
CCOCCCNC(=O)C1CCN(S(=O)(=O)N2CC(C)CC(C)C2)CC1 (stereo not drawn)	13.6%
Cc1cc2ccccc2n1CCC(=O)O	33.2%
CCc1n[nH]c(=S)n1/N=C/C(C)=C\c1ccccc1	0.441%
CC1=C(OC(=O)c2ccc(Br)cc2)C(C)(C)C(c2ccccc2)OC1=O (stereo not drawn)	11.7%
COc1ccc(-c2cn3c(C)c(C(=O)NCc4ccc5c(c4)OCO5)sc3n2)cc1	11.2%
Fc1ccccc1-c1nc2nc3ccccc3nc2n1CC1CCCO1 (stereo not drawn)	-0.454%
CCc1ccc(/C=N/NC(=O)c2nnn(-c3nonc3N)c2C(C)C)cc1	16.1%
COc1cc(/C=N/NC(=O)c2nc3ccccn3c2C)cc(OC)c1O	-5.17%
CSc1ccc(Cl)c(C(=O)Nc2nccs2)c1	1.65%
COc1ccc(N2C(=O)/C(=C/c3cc(C)n(-c4ccc(C)cn4)c3C)C(=O)NC2=S)c(OC)c1	7.04%
O=C1CC(=O)N(Cc2ccco2)C(=S)N1	4.78%
NC(=O)NOCc1ccc(F)cc1Cl	19%
CCC(C)Sc1cc(-c2nc3ccc(C)cn3c2NCc2ccccc2)ccc1OC.O=C(O)C(F)(F)F (stereo not drawn)	-1.12%
COc1ccc(N(C)C(=O)C2CCN(S(=O)(=O)c3cccc4nonc34)CC2)c(OC)c1	-18.2%
CO[C@H]1[C@@H]2C=CO[C@@H](O[C@H]3O[C@@H](CO)[C@H](O)[C@@H](O)[C@@H]3O)[C@@H]2[C@@]2(CO)O[C@@H]12	11.9%
O=C(O)c1ccc(N=NNc2cccc([N+](=O)[O-])c2)cc1	6.55%
COc1ccc(N)cc1-n1cnnn1	39.3%
CC(=O)N1c2ccc(S(=O)(=O)N(C)Cc3ccco3)cc2CC1C (stereo not drawn)	-8.73%
